Results: PubChem BioAssay AID485294 (National Center for Advancing Translational Sciences (NCATS), 2010)
Hit rate of the full screen: of about 370,000 compounds, about 150 (0.041%) were called active. The shares of active, inactive and inconclusive entries below differ from those in the screen. The call rests on the fitted dose curve; in most records, active means well fitted inhibition curve with a large enough effect; inconclusive means small, poorly fitted or top-dose-only effect; inactive means flat fitted curve, though single readings scatter. No potency is given beside an inconclusive call; the fits are too rough.

What follows are compounds tested against Beta-lactamase (Escherichia coli (strain K12)) (UniProt P00811) (assay: qHTS Inhibitors of AmpC Beta-Lactamase (assay with detergent)). Details: AmpC hydrolysis of nitrocefin, absorbance 480 nm, 0.01% Triton; activity change, negative = inhibition: at 114 µM (top of the series).
Procedure, shortened: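 AmpC (5.3 nM in the dispensed reagent) in 20 mM phosphate pH 7.0 with 0.01% (detergent screen) or 0.0001% Triton X-100 was preincubated with compounds for 15 min at room temperature. Nitrocefin was then added from an 800 uM solution, and hydrolysis was followed at 480 nm.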
Further: nearly all actives have a fitted effect of over 25% in size.
Potency means the concentration at half of the fitted maximal effect; tags describe the fitted curve by direction and shape.
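Wherever activity change, negative = inhibition is given: 0% = no-compound wells and -100% = no-enzyme wells.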

UniProt P00811, sequence (P00811 whole entry, looked up): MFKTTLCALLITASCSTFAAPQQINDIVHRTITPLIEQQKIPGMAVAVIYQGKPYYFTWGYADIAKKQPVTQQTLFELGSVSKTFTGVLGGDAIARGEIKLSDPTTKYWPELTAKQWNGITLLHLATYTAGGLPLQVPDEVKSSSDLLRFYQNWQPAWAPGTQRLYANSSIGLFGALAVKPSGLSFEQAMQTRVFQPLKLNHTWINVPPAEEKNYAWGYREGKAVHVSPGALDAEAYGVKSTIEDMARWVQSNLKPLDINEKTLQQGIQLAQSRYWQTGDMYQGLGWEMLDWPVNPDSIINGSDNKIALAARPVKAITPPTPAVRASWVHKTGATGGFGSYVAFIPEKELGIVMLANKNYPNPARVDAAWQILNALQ

Row | Structure (SMILES) | Potency | activity change, negative = inhibition
1 | Cn1c(=O)n(C)c2cc(C(=O)O)ccc21 | inconclusive [inhibitor, full curve, poor fit] | 
2 | COCCn1nnnc1C(c1cc(OC)ccc1OC)N1CCc2ccccc2C1 (stereo not drawn) | inconclusive [inhibitor, full curve, poor fit] | 
3 | Cc1ccc(C(=O)NNC(=O)c2ccc(Br)s2)cc1S(=O)(=O)N1CCOCC1 | inconclusive [inhibitor, single point] | 
4 | c1ccc(-c2nnc(NC3=NCCC3)o2)cc1 |  | inactive: -4.79%
5 | N#Cc1cccc(CN2CCC(=O)N([C@H](CO)Cc3ccccc3)CC2)c1 | inconclusive [inhibitor, partial curve, poor fit] | 
6 | N#Cc1nc(COc2ccccc2Cl)oc1NCc1ccco1 |  | inactive: 0.805%
7 | C[C@@H]1NC(=O)[C@H](CCC(N)=O)NC(=O)c2cc([N+](=O)[O-])cc(I)c2NCC[C@@H](C(N)=O)NC1=O | inconclusive [inhibitor, full curve, poor fit] | 
8 | O=[N+]([O-])c1ccc(N2CCCC2)cc1N1CCCC1 | inconclusive [inhibitor, partial curve] | 
9 | CCOc1ccc(NC(=O)C(C)NC(=O)c2ccccc2Cl)cc1S(=O)(=O)N1CCCC1 (stereo not drawn) | inconclusive [inhibitor, full curve, poor fit] | 
10 | Cc1ccc(Nc2c(-c3ccccc3O)nc3cnccn23)cc1 |  | inactive: 2.62%
11 | Cc1ccccc1S(=O)(=O)Cc1ccc(C(=O)NC(C)c2ccc3c(c2)OCCO3)o1 (stereo not drawn) | inconclusive [inhibitor, full curve] | 
12 | O=C(O)CSc1cnc2ccccc2n1 | inconclusive [inhibitor, partial curve, poor fit] | 
13 | CCOC(=O)CNC(=O)N1CCc2ccc(NC(=O)c3ccccc3Cl)cc2C1 | inconclusive [inhibitor, full curve] | 
14 | C=CCn1c(N)c(C(=O)NC2CCCCC2)sc1=S | inconclusive [inhibitor, full curve, poor fit] | 
15 | Cc1cccc(CCNS(=O)(=O)c2ccc(S(=O)(=O)NC3CCCC3)cc2)c1 | inconclusive [inhibitor, full curve, poor fit] | 
16 | O=C(Nc1ccc(S(=O)(=O)N2CCOCC2)cc1)C1COc2ccccc2O1 (stereo not drawn) | inconclusive [inhibitor, partial curve, poor fit] | 
17 | CCOc1ccc(/C(O)=C2/C(=O)C(=O)N(CCOCCO)C2c2cccnc2)cc1 (stereo not drawn) | inconclusive [inhibitor, full curve, poor fit] | 
18 | C=CCn1c(NCc2ccc(OC)cc2O)nc2ccccc21 | inconclusive [inhibitor, full curve, poor fit] | 
19 | CCN(CC)CCCNC(=O)Cc1c(C(=O)O)n(C)c2ccccc12 | inconclusive [inhibitor, full curve, poor fit] | 
20 | O=C1CC(NS(=O)(=O)c2cccnc2)CN1c1cccc(F)c1 (stereo not drawn) | inconclusive [inhibitor, full curve, poor fit] | 
21 | COc1ccc(C(=O)CSc2ccc(-c3ccc(C)cc3)nn2)cc1 | inconclusive [inhibitor, partial curve] | 
22 | O=c1[nH]c(=O)n(-c2ccc(F)cc2)c2c1C(C(F)(F)F)(C(F)(F)F)N=C(c1ccc(F)cc1)N2 |  | inactive: -8.06%

Row | Structure (SMILES) | Potency | activity change, negative = inhibition
23 | COc1ccc(OC)c(Nc2nc(-c3cccs3)cs2)c1 |  | inactive: -2.39%
24 | COc1ccc(CNC(=O)C2CCCN(S(=O)(=O)c3cccc4nsnc34)C2)cc1 (stereo not drawn) | inconclusive [inhibitor, full curve, poor fit] | 
25 | c1ccc2cc(CSCc3nc4ccccc4[nH]3)ccc2c1 |  | inactive: -10%
26 | CC(C)N(Cc1cc2ccccc2[nH]c1=O)C(=O)c1cccnc1 | inconclusive [inhibitor, single point] | 
27 | CCN(CC)S(=O)(=O)c1ccc(C)c(NC(=O)COc2ccc(Cl)cc2Br)c1 | inconclusive [inhibitor, full curve] | 
28 | CC1CCCC(C)N1C(=O)CSc1nnc(-c2c[nH]c3ccccc23)o1 (stereo not drawn) | inconclusive [inhibitor, full curve] | 
29 | COc1ccc(CCNC(=O)CSc2nnnn2-c2ccc(OC)c(OC)c2)cc1OC | inconclusive [inhibitor, single point] | 
30 | CCn1c(=O)c2ccccc2n(Cc2cccc([N+](=O)[O-])c2)c1=O |  | inactive: -2.47%
31 | COc1cc(S(=O)(=O)NCc2ccccn2)c(OC)cc1Cl | inconclusive [inhibitor, partial curve] | 
32 | Cc1cccc(OP(=O)(Nc2ccc(F)cc2)Oc2cccc(C)c2)c1 | inconclusive [inhibitor, full curve, poor fit] | 
33 | Cc1cc(NS(=O)(=O)c2ccc(NC(=O)CCSc3ccc(F)cc3)cc2)nc(C)n1 | inconclusive [inhibitor, full curve, poor fit] | 
34 | CC(=O)N1CCN(c2ccc(NC(=O)c3cccc(Cl)c3Cl)cc2)CC1 |  | inactive: -14.5%
35 | O=C(Nc1ccc2c(c1)nc1n2CCOC1)c1ccco1 |  | inactive: -13.5%
36 | Cc1ccc(C(=O)Nc2ccc(C(=O)N/N=C/c3cccnc3)cc2)cc1 |  | inactive: -4.13%
37 | CN1CCN(C(=O)C23CC4CC(C)(CC(C)(C4)C2)C3)CC1 | inconclusive [inhibitor, full curve, poor fit] | 
38 | O=C(Nc1nc2n(n1)C(c1ccc(F)cc1)C=C(c1ccccc1)N2)c1ccco1 (stereo not drawn) |  | inactive: -6.19%
39 | Cc1c(Cl)cccc1NC(=O)c1ccc2c(c1)CCN2S(=O)(=O)c1ccccc1 |  | inactive: 16.1%
40 | O=[N+]([O-])c1ccc(CSc2ccc(S(=O)(=O)N3CCCCCC3)cn2)cc1 | inconclusive [inhibitor, full curve, poor fit] | 
41 | CCNC(=O)NC(=O)c1csc([N+](=O)[O-])c1 | inconclusive [inhibitor, full curve, poor fit] | 
42 | CC(=O)Nc1cccc(C(=O)OCC(=O)NC(=O)c2ccccc2)c1 |  | inactive: 5.03%
43 | O=C(CSc1nnc(COc2ccccc2)n1Cc1ccco1)NCc1ccco1 | inconclusive [inhibitor, full curve, poor fit] | 
